Laboratory results: PubChem BioAssay AID504332 (National Center for Advancing Translational Sciences (NCATS), 2011)
Values joined by “and” are separate entries in the source; they are usually repeats but may differ in a detail not shown here. Equal entries are not always repeated. The campaign covered roughly 350,000 compounds. About 31,000 (8.9%) were called active. The inconclusive results got no clear call from the source; some entries with a clear call stand among them for comparison. Calls follow the shape of the dose curve; as a rule, active = well fitted inhibition curve with a large enough effect; inconclusive = small, poorly fitted or top-dose-only effect; inactive = no such curve, though single readings can be large or run the other way. Where the call is inconclusive, the potency comes from a doubtful curve fit. Where a SMILES comes first, the peptide text is derived from it. The star is where a group is joined. OPac = O=C(CO*)c1ccccc1; Bz = O=C(c1ccccc1)*

biological target: Histone-lysine N-methyltransferase EHMT2 (Homo sapiens) (UniProt Q96KQ7); assay: qHTS Assay for Inhibitors of Histone Lysine Methyltransferase G9a; conditions: G9a H3K9 monomethylation, AlphaScreen, 2 h; activity, negative = inhibition: at 59 µM (top of the series) unless noted; also: nearly all actives have a fitted effect of over 75% in size
Outline: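 Methyltransferase reactions run at room temperature for 2 h (20 nM enzyme, 500 nM biotin-H3K9 peptide, 20 uM SAM) after a 15 min compound preincubation; product detected by AlphaScreen beads and anti-H3K9me1 antibody.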
% is scaled to controls: 0 for no effect and ±100 for the full control effect; potency is read from the fitted curve at half-maximal effect; tags tell the direction and shape of the fitted curve.

UniProt Q96KQ7, sequence (Q96KQ7 whole entry, looked up): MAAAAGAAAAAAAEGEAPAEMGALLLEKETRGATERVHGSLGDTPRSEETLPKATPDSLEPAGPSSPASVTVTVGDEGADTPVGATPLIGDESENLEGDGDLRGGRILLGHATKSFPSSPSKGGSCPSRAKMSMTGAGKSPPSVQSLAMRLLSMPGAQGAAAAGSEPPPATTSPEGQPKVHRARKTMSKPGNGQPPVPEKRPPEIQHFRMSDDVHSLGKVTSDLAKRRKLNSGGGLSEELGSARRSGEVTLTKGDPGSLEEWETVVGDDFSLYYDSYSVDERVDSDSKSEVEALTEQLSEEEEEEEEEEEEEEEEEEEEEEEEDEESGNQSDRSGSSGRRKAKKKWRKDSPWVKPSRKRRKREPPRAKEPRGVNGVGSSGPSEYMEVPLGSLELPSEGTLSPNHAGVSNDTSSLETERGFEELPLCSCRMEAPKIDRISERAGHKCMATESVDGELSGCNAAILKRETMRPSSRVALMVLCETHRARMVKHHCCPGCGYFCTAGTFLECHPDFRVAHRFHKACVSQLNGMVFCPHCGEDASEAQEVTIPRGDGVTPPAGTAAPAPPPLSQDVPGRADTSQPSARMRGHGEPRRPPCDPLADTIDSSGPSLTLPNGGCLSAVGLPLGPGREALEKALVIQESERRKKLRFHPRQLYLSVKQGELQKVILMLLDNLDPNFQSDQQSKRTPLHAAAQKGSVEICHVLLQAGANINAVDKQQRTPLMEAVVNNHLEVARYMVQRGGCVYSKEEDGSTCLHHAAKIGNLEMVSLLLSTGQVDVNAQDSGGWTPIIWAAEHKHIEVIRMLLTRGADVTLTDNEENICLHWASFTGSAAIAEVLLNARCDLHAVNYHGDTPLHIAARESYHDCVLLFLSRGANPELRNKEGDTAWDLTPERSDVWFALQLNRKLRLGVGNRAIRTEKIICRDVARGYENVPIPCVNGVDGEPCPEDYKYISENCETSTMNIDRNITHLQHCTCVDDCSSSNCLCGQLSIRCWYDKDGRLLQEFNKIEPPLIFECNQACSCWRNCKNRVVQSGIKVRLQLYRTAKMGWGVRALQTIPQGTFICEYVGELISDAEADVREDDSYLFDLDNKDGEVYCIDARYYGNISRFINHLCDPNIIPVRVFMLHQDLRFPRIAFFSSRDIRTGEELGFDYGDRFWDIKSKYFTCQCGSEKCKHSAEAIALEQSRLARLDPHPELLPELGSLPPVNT

Structure (SMILES)	activity, negative = inhibition	Potency
COc1ccc(CNC(=S)Nc2cccc(C)c2)cc1	inactive: 7.04%	
CCOC(=O)N1CCN(Cc2nc3c(c(=O)n(C)c(=O)n3C)n2CCC(C)C)CC1		inconclusive: 79.4 µM [inhibitor, single point]
CCCCn1c(=O)c(C(=O)OCC)c(O)c2ccccc21		inconclusive: 79.4 µM [inhibitor, single point]
CCOC(=O)C1=C(CNCCc2ccc(Cl)cc2)NC(=O)NC1c1cccc([N+](=O)[O-])c1 (stereo not drawn)		inconclusive: 70.8 µM [inhibitor, single point]
O=C(CNC(=O)c1ccccc1)NCC(=O)OCC(=O)c1ccccc1 (Bz-Gly-Gly-OPac)		inconclusive: 7.94 µM [inhibitor, partial curve, poor fit]
O=C(CSc1ncccn1)N/N=C/c1ccccc1[N+](=O)[O-]	inactive: -48.7% [at 102 µM]	
Cc1cccc(C)c1NC(=O)CCCCCNS(=O)(=O)c1ccccc1	inactive: 1.21% [at 102 µM]	
Cc1cc(C)c2[nH]c(=O)c(C(c3nnnn3Cc3ccc4c(c3)OCO4)N3CCCC3)cc2c1 (stereo not drawn)		inconclusive: 35.5 µM [inhibitor, single point]
CCc1ccccc1NC(=O)N[C@@H](C)C(=O)O		inconclusive: 89.1 µM [inhibitor, single point]
COc1cc(NC(=O)c2cc(CC(C)C)on2)c(OC)cc1Cl		inconclusive: 0.794 µM [inhibitor, partial curve, poor fit]
CCCCN(C(=O)CSc1cc(C)c2ccc(OC)cc2n1)c1c(N)n(Cc2ccccc2)c(=O)[nH]c1=O		inconclusive: 28.2 µM [inhibitor, single point]
O=C(c1cc2c(s1)CCC2)N1C(=O)c2ccccc2S1(=O)=O		active: 39.8 µM
COc1ccc(-n2c(Cc3cccn3C)nnc2SCC(=O)NC2CCCC2)cc1		inconclusive: 31.6 µM [inhibitor, single point]
COC(=O)c1sc(NC(=O)c2cc3nc(-c4ccc(Br)cc4)cc(C(F)(F)F)n3n2)c(C(=O)OC)c1C	inactive: -1.98%	
CCc1ccc(NC(=O)c2cc3nc(-c4ccc(C)cc4)cc(C(F)(F)F)n3n2)cc1	inactive: 1.05%	
COc1ccccc1-c1nnc(SCC(=O)NC2CCCCC2)o1	inactive: -0.864% [at 102 µM]	
OCCN1CCN(CC(O)COCC2COc3ccccc3O2)CC1 (stereo not drawn)		inconclusive: 50.1 µM [inhibitor, partial curve, poor fit]
COc1ccc(NC(=O)COc2ccc(CNCCCN3CCOCC3)cc2OC)cc1		inconclusive: 70.8 µM [inhibitor, single point]
Cc1ccc(OCC(=O)Nc2ccccc2C(=O)OCc2cc(=O)n3ccsc3n2)cc1C	inactive: -37%	
CCN1CCN(C(=O)C2CCN(Cc3nc(-c4cccc(Cl)c4)oc3C)CC2)CC1		inconclusive: 35.5 µM [inhibitor, partial curve, poor fit]
CSC1=NCCN1C(=O)c1ccc(C)cc1	inactive: 8.16%	
CCOC(=O)N1CCN(C(=O)c2nn(-c3cc(OC)cc(OC)c3)c(=O)c3ccccc23)CC1		inconclusive: 39.8 µM [inhibitor, partial curve, poor fit]
Cc1oc(/N=C/c2ccc(Cl)cc2Cl)c(C#N)c1C		active: 44.7 µM
Brc1cccc(OCCN2CCOCC2)c1		active: 8.91 µM
COc1ccc(C(=O)NC(=S)Nc2nc(C)c(C(=O)N(C)C)s2)cc1		inconclusive: 28.2 µM [inhibitor, single point]

Structure (SMILES)	activity, negative = inhibition	Potency
CC1CCCC(C)N1C(=O)c1cc(-c2ccco2)on1 (stereo not drawn)		active: 50.1 µM
O=C(N/N=C/c1cccnc1)c1cccc(NC(=O)c2cccc(Br)c2)c1	inactive: 8.73%	
O=C(NC(=S)NNC(=O)c1ccccc1O)c1ccco1		inconclusive: 7.94 µM [inhibitor, full curve, poor fit]
CSc1nc(-c2ccccc2)nc(N)c1C(C)=O		inconclusive: 10 µM [inhibitor, partial curve]
CCOc1ccc(NCC2CCOC(C)(C)C2)cc1 (stereo not drawn)		active: 7.08 µM
CCN1C(=O)/C(=C/c2ccc(C)s2)SC1=Nc1ccc(OC)cc1		inconclusive: 15.8 µM [inhibitor, single point]
COC(=O)c1ccc(S(=O)(=O)NCc2ccccn2)n1C		inconclusive: 56.2 µM [inhibitor, partial curve, poor fit]
CN1CCN(NC(=O)C2CC2)CC1		inconclusive: 39.8 µM [inhibitor, single point]
CC(=O)c1ccc(OCC(O)CN(C)Cc2cccs2)cc1 (stereo not drawn)		active: 3.55 µM
COc1ccc(CC(=O)NCc2nc3cccnc3n2Cc2ccc(C)cc2)cc1	inactive: 6.08%	
COc1ccc(C2(c3ccc(OC(C)=O)cc3OC(C)=O)CC(c3ccccc3)NC(=S)N2)cc1 (stereo not drawn)		inconclusive: 5.62 µM [inhibitor, full curve]
O=C(CSc1n[nH]c(-c2ccncc2)n1)Nc1ccccn1		inconclusive: 39.8 µM [inhibitor, single point]
Cc1cccc(NC(=O)CNC(=O)Cc2ccc(S(=O)(=O)N3CCOCC3)s2)c1C	inactive: 1.29% [at 12.7 µM]	
Brc1cc(/C=N/n2cnnc2)oc1Br		inconclusive: 70.8 µM [inhibitor, partial curve, poor fit]
Cc1ccc(N2CCN(C3=NC(=O)/C(=C\c4cccs4)S3)CC2)cc1	inconclusive: -75.4% [inhibitor]	
O=S(=O)(Nc1cccnc1)c1cccc(C(F)(F)F)c1	inactive: -12.7%	
Cn1c(C(=O)OC(C(=O)NC2CCCCC2)c2ccccn2)cc2sccc21 (stereo not drawn)		inconclusive: 50.1 µM [inhibitor, partial curve, poor fit]
Cc1cnc(C(=O)Nc2ccccc2-n2cccc2)cn1		inconclusive: 17.8 µM [inhibitor, partial curve, poor fit]
N=C1/C(=C/c2ccco2)C(=O)N=C2SC(CC(=O)N3CCCC3)=NN12		active: 39.8 µM
O=C(NCC(=O)N(Cc1cccs1)C(C(=O)NC1CCCC1)c1ccco1)c1cccs1 (stereo not drawn)		inconclusive: 89.1 µM [inhibitor, partial curve, poor fit]
Cc1cc(C)n(CC(O)CN2c3ccccc3Sc3ccccc32)n1 (stereo not drawn)		inconclusive: 44.7 µM [inhibitor, partial curve, poor fit]
O=C(NCCCN1CCOCC1)c1ccc(Sc2ccc(F)cc2)c([N+](=O)[O-])c1		inconclusive: 17.8 µM [inhibitor, partial curve, poor fit]
O=C(CC1OC(=O)c2ccccc21)Nc1cc(Cl)ccc1N1CCCC1 (stereo not drawn)		active: 56.2 µM
Fc1ccc(-c2cc(-c3ccccc3)c3c(n2)-c2cc(F)ccc2OC3)cc1	inactive: 17.5%	
COc1ccccc1/C=N\N=C(\N)c1ccccn1	inactive: -7.88% [at 102 µM]	

Structure (SMILES)	activity, negative = inhibition	Potency
S=C(c1ccc(-c2cc(Cl)ccc2Cl)o1)N1CCOCC1		active: 8.91 µM
O=c1[nH]c(=O)n(Cc2ccc(Oc3ccccc3)cc2)cc1Br		inconclusive: 89.1 µM [inhibitor, single point]
O=C(COC(=O)c1cnccn1)NCc1ccc2c(c1)OCO2	inactive: -3.43% [at 102 µM]	
Cn1c(=O)cc(OCC(=O)NCCCN2CCN(c3cccc(Cl)c3)CC2)c2ccccc21		active: 50.1 µM
CC(C)c1ccc(NC(=O)CSc2n[nH]c(=O)n2Cc2ccco2)cc1		inconclusive: 79.4 µM [inhibitor, partial curve, poor fit]
Cc1ccc(NC(=O)CSc2nc(=O)n(CCN(C)C)c3c2CCCC3)c(C)c1	inactive: 6.7% [at 0.501 µM]	
NC(=O)C[C@H](NC(=O)Cc1ccc(O)cc1O)C(=O)O	inactive: 27.1%	
Cc1ccc(-c2csc(N3CCN(CCCn4c(C(F)(F)F)nc5ccccc54)CC3)n2)cc1		active: 44.7 µM
CCC(=O)Nc1c(C)n[nH]c1C		inconclusive: 100 µM [inhibitor, single point]
CCCN1CCCc2ccccc21		active: 22.4 µM
Nc1nc(NCCCN2CCOCC2)nc(NCc2ccccc2)c1[N+](=O)[O-]	inactive: -9.41% [at 102 µM]	
CCOC(=O)C1CCCN(CCCc2ccccc2)C1 (stereo not drawn)	inactive: -11.2% [at 102 µM]	
COC(=O)C1=C(SC)N(c2ccc(OC)cc2)C(c2ccccc2)CC1=O (stereo not drawn)	inactive: 0.301% [at 102 µM]	
COc1ccc(S(=O)(=O)NCC(c2ccco2)N2CCOCC2)cc1 (stereo not drawn)		inconclusive: 3.16 µM [inhibitor, partial curve] and inconclusive: 56.2 µM [inhibitor, partial curve]
CN1CCC(=C2c3ccccc3C(O)c3ccccc32)CC1 (stereo not drawn)		inconclusive: 1.78 µM [inhibitor, full curve]
CCCCn1c(N)c(NCCC)c(=O)[nH]c1=O		inconclusive: 0.708 µM [inhibitor, full curve, poor fit]
CCC(C)(NC(=O)c1cccc(N2C(=O)CSC2c2ccccc2)c1)C(=O)Nc1ccccc1C (stereo not drawn)		inconclusive: 89.1 µM [inhibitor, single point]
COCCCNCCCCSc1ccc(Cl)cc1		active: 3.55 µM
COc1ccc(C(CC(=O)c2ccc(C)cc2)Nc2ccc([N+](=O)[O-])cc2)cc1 (stereo not drawn)		inconclusive: 39.8 µM [inhibitor, single point]
Cc1c2ccccc2nc2c(F)c(NC(C)C)c(F)c(F)c12	inactive: -26.9% [at 102 µM]	
CCOC(=O)c1c(NC(=O)COC(=O)Cn2cnc3c2c(=O)n(C)c(=O)n3C)sc(C)c1CC		inconclusive: 63.1 µM [inhibitor, partial curve, poor fit]
CCC(Oc1ccccc1)C(=O)Nc1ncc([N+](=O)[O-])s1 (stereo not drawn)		inconclusive: 79.4 µM [inhibitor, single point]
Cc1nc(C)c(-c2csc(NCc3ccco3)n2)s1		inconclusive: 3.55 µM [inhibitor, partial curve, poor fit]
